Data on 8 substances can be found in paper PMC3279310.

Chains of the proteins cited; added tags and fusions are not shown.
UniProt Q0PF16: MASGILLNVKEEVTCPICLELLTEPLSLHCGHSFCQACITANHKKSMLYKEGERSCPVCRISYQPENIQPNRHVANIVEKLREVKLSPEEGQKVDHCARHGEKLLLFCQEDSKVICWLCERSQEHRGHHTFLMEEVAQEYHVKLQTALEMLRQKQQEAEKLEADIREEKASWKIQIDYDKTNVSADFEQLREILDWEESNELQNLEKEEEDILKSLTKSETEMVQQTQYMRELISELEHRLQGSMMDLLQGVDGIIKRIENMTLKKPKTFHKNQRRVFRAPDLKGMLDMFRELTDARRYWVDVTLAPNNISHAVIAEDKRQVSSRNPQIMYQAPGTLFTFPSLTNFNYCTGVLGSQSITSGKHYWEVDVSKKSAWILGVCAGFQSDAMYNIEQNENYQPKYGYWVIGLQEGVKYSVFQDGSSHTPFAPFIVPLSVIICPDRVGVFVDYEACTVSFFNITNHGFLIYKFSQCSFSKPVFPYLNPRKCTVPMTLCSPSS
UniProt P35998: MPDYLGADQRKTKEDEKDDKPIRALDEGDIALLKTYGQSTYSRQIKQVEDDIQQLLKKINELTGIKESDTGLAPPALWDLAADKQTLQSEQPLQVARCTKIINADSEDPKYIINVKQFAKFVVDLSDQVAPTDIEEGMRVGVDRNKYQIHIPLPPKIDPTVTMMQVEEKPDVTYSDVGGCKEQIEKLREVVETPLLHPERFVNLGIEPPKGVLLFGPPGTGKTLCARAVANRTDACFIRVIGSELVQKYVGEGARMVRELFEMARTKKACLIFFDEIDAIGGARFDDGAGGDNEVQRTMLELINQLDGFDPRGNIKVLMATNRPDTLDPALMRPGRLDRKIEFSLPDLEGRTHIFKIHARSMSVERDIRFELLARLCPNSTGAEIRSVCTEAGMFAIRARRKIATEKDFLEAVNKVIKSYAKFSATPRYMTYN
UniProt P62195: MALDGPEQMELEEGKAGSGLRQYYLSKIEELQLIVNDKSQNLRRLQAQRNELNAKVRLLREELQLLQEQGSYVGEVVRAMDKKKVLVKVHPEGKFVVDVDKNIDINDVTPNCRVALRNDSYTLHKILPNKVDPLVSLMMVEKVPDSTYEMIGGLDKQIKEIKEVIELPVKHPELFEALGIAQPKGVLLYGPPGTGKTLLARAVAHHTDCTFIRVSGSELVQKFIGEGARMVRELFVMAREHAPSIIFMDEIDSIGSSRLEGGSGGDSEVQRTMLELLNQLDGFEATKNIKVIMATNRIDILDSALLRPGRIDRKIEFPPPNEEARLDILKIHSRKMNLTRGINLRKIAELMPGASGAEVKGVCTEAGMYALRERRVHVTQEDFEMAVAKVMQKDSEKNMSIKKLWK
UniProt Q9C035: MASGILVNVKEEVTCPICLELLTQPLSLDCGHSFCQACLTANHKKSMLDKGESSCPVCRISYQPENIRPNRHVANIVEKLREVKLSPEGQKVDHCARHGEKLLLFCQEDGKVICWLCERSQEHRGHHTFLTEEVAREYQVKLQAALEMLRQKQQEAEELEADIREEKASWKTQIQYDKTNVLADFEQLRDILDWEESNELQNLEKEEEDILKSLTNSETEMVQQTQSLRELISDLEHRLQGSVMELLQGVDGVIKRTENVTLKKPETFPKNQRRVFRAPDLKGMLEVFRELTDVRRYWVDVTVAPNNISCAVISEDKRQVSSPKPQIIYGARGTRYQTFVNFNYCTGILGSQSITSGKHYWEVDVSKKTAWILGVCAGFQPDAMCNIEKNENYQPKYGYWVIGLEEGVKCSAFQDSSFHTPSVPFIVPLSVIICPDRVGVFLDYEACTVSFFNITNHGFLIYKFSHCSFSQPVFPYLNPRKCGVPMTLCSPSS
UniProt Q16584: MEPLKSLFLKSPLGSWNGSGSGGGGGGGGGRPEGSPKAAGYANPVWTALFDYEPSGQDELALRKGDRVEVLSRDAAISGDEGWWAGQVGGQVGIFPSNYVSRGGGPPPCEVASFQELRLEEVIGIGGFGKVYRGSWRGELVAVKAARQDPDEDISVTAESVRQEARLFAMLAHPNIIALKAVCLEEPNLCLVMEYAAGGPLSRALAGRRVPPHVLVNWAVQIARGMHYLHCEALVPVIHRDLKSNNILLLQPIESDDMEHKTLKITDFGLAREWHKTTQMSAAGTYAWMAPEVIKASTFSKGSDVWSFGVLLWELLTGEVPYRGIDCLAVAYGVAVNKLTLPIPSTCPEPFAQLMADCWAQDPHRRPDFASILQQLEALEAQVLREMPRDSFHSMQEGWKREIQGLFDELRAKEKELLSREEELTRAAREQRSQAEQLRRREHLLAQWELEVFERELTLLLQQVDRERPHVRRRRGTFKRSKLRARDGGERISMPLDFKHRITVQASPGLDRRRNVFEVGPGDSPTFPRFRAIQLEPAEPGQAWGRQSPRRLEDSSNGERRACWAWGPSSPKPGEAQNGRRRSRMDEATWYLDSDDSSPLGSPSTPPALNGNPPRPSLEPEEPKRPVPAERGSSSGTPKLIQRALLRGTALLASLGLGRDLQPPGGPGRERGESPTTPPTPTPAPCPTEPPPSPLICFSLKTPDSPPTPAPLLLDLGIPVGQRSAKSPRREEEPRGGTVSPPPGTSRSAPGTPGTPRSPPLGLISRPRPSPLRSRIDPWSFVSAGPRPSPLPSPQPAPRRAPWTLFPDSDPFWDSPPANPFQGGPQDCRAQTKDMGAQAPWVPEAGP
UniProt P51665: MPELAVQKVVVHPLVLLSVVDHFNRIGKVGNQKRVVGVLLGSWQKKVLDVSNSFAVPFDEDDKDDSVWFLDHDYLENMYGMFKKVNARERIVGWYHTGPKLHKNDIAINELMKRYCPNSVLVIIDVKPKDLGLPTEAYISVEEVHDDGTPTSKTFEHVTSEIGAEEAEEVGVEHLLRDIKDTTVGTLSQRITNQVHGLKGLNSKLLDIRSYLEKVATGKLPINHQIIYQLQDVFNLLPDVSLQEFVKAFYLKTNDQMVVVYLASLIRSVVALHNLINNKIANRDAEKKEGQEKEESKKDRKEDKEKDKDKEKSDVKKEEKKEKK

No constants are given. Whether binding was seen depends on the method and setting. In cells and extracts the contact can be indirect. Some entries that bind do so weakly or less than the wild type.

Experiment [1] addresses HA-rhTRIM5α (transfected 293T cells) (rhesus macaque) (UniProt Q0PF16). Briefly: co-IP; 293T cells co-transfected; lysis in 50 mM Tris pH 7.4, 125 mM NaCl, 1% NP-40; IP with anti-HA antibody and protein A beads at 4°C; blot with anti-FLAG.
Experiment [2] concerns the target FLAG-PSMC2 (transfected HEK293 cells) (UniProt P35998). Briefly: co-IP; HEK293 cells co-transfected; lysis in 50 mM Tris pH 7.5, 150 mM NaCl, 1% Triton X-100, 1 mM EDTA, 10% glycerol; IP with anti-FLAG M2 on Protein G Dynabeads at 4°C; blot with anti-Myc.
For experiment [3], the target named is HA-rhTRIM5α (HeLa cell line stably expressing it) (rhesus macaque) (UniProt Q0PF16). Briefly: FRET or BRET; immunofluorescence-based FRET by acceptor photobleaching in fixed HeLa cells stably expressing HA-rhTRIM5α; HA labelled with Cy5 secondary antibody (acceptor), proteasome subunit with Alexa546 secondary antibody (donor).
Experiment [4] addresses CFP-rhTRIM5α (rhesus macaque) (UniProt Q0PF16). Briefly: FRET or BRET; E-FRET (sensitised emission, three images) in live cells with CFP-rhTRIM5α and YFP-PSMC2, single assemblies.
For experiment [5] the target is unchanged. Briefly: FRET or BRET; progressive acceptor photobleaching in live HeLa cells transfected 1:1 with CFP-rhTRIM5α (donor) and YFP-PSMC2 or YFP empty vector (acceptor); 50 frames over 10 minutes. For orientation: In BRET a luciferase serves as donor, and the signal depends on an acceptor being close.

In the case of FLAG-RPT6 (from UniProt P62195 1-406), the binding entry in experiment [1] is “binds”.

As for “huTRIM5α-Myc (from UniProt Q9C035 1-493)”, in experiment [2], the binding entry is on record as “binds”.

For the substance “FLAG-PSMC2 (transfected 293T cells) (from UniProt P35998 1-433)”, in experiment [1], the binding entry was “binds”.

As for FLAG-RPT3 (from UniProt P43686 1-418), the binding result in experiment [1] was “binds”.

With “FLAG-tagged Mixed Lineage Kinase 3 (MLK3) (from UniProt Q16584 1-847)”, the binding entry in experiment [1] was “no binding”.

As for “endogenous proteasome subunit PSMC2 (HeLa) (from UniProt P35998 1-433)”, the binding entry in experiment [3] is given as “binds”.

On to FLAG-RPN8 (from UniProt P51665 1-324), for which the binding result in experiment [1] was “binds”.

For “YFP-PSMC2 (YFP C1-PSMC2) (from UniProt P35998 1-433)”, the binding result in experiment [4] and in experiment [5] was “binds” in each case.
